# Reference: ChEMBL document CHEMBL4888484, “Replenishing the malaria drug discovery pipeline: Screening and hit evaluation of the MMV Hit Generation Library 1 (HGL1) against asexual blood stage Plasmodium falciparum ,using a nano luciferase reporter read-out” (2022)
# In all, about 150,000 compounds went through this assay and about 540 (0.36%) showed an effect of 50% or more. Some of the results follow.
# Test system: Plasmodium falciparum
# Experiment: Primary screen in NF54 nanoGlo assay, in single point, at 2uM, 72h; a lower Z score goes with more inhibition
# Type: functional, Erythrocyte
# Settings: timepoint 72 hour
SMILES,% Inhibition,Z score
O=C1NC2(CCCCC2)C(=O)N1CN1CCc2ccccc2C1,5%,-0.73
CCCN(C(=O)c1ccncc1F)[C@H]1CC(=O)N(C)C1=O,-19%,3.71
Cc1cc(C(=O)N2CCN(C3CC3)c3ccc(Cl)cc32)c(C)nn1,-10%,1.9
c1ccc2oc(-c3ccnc4nncn34)cc2c1,38%,-4.96
CC[C@H](C)NC(=O)c1cccc(Nc2c(Oc3ccccc3OC)cnn(C)c2=O)c1,1%,-0.2
O=c1scnn1Cc1cc(F)cc(F)c1,-8%,1.14
Cc1cc(C(=O)N[C@H]2C[C@H](c3ccc(F)c(Br)c3)C2)[nH]n1,2%,-0.37
O=C1OC2CC1N(C(=O)Cc1noc3ccccc13)C2 (stereo not drawn),-2%,0.33
Cc1ccc(NC(=O)Cn2c(=O)c3cc(C4CC4)nn3c3ncccc32)cc1,2%,-0.39
Cc1nnc(C(=O)Nc2cccc(C(=O)NC3CCCCC3)c2)s1,-10%,1.57
Cc1cc(=O)n2c3c(cc(S(=O)(=O)NCc4ccccc4)cc13)CCC2,-11%,1.41
Cc1ccc(C(=O)N2CCC[C@@H]2CO)c(=O)n1C,-25%,2.28
CCOc1ccc(CN2CCCn3nc(CNC(=O)C4CCC4)cc3C2)cc1,-13%,2.26
CCCc1cc(C(=O)N2CCCCCC2)cs1,31%,-4.37
Cc1cc(N[C@H]2CCc3ccccc3C2)ccc1C(N)=O,8%,-1.53
CNS(=O)(=O)c1cccc(NC(=O)N2CCC(C)(N3CCOCC3)CC2)c1,1%,-0.26
O=C(Nc1nnc(C2CC2)s1)c1ccc2c(c1)OCCO2,5%,-0.89
CCn1ncc(Br)c1C(=O)Nc1cnc(C(C)C)nc1,-9%,1.5
O=C(Cn1ccc2ccccc2c1=O)N1CCC[C@H](C2CC2)C1,-1%,0.19
Cc1ccccc1-c1ccccc1C(=O)N1CCCn2nncc2C1,0%,-0.02
CC(C)c1noc([C@@H]2CCCN2Cc2nc3c(cnn3C)c(=O)[nH]2)n1,3%,-0.52
O=C(O)[C@H]1CC12CCN(Cc1cccc(C(F)F)c1)CC2,2%,-0.23
Cc1cc(C(=O)N2CCC[C@H](c3cccnc3)C2)ns1,-4%,0.7
COc1cccc(-c2cc(=O)n(CC(=O)NCc3ccc(Cl)cc3)c(C)n2)c1,5%,-0.54
